Assay results reported in patent US20090291088A1, “THERAPEUTIC COMBINATIONS OF ANTI-IGF-1R ANTIBODIES AND OTHER COMPOUNDS” (Biogen Idec MA Inc., priority 2008, published 2009).

Legend:
[1] = target: IGF-1R (Homo sapiens, UniProt P08069); experiment: Ligand blocking assay (RIA): 125I-IGF-1 / 125I-IGF-2 binding to immobilized IGF-1R; design: human IGF-1R(1-903)-Fc (denoted hIGF-1R-Fc, generated by Biogen Idec); conditions: 100 nM-0.01 nM antibody, IGF-1R-Fc
Source text: Ligand blocking assay (RIA). […] Insulin (Arg-Insulin, Cat #01-207) was purchased from Upstate Cell Signaling Solutions (Lake Placid, N.Y. (now part of Millipore, Concord, Mass. (USA)). ^125I-rhIGF-1 (Cat # IM172), ^125I-rhIGF-2 (Cat# IM238) and ^125I-rhInsulin (Cat# IM166) were purchased from Amersham Biosciences (Piscataway, N.J.). AffiPure goat anti-human IgG, Fcγ fragment specific antibodies (Cat #109-005-098, Jackson ImmunoResearch, West Grove, Pa.) was used for IGF-1R-Fc capture. As detection antibody, goat anti-mouse IgG HRP (Cat #1030-05, Southern Biotech Birmingham, Ala.) was used.
Human insulin receptor α-subunit specific antibodies, Clone 83-14, (Cat #AHR0221, Biosource International, Inc., Camarillo, Calif.) and the 47-9 (Cat #E55502M, Biodesign International, Saco, M E) were used as positive controls blocking of insulin-insulin receptor binding experiments. Recombinant IGF-1R-Fc fusion protein was produced at Biogen Idec (Cambridge, Mass.).
As isotype matched mouse negative control antibodies, 2B8 (murine α-CD20.1gG,) and 2B8 mkm.G2a (murine α-CD20 MAb, IgG2a, Biogen Idec, Lot #NB3304-87, San Diego, Calif.) were used. The negative control for Fabs was R001-1B provided by Christilyn Graff (Biogen Idec, Cambridge, Mass.). PBS used in buffers was from BioWhittaker (Cat. # 17-513F, Walkersville, Md.).
Recombinant human IGF-1R (Histidine tagged version) or IGF-1R-Fc was coated onto IMMULON2 HB (high binding) Removawell strips (Dynex Technologies, Inc., cat. #6302) diluted with carbonate coating buffer pH 9.5 to a concentration of 250 ng/well. After overnight incubation at 4° C., the wells were washed three times with washing buffer (0.05% Tween 20/PBS) then blocked with blocking buffer (3% BSA/PBS) for one hour at room temperature. The blocking buffer was removed and the wells washed three more times. Antibody, Fab, or ligand preparations were diluted to desired concentration with dilution buffer (1% BSA/0.05% Tween 20/PBS) and plated at 50 μl per well in duplicate. After 45 minutes at room temperature, 100,000 cpm of either [125I] rhIGF-1 or [125I] rhIGF-2 in 50 μl dilution buffer was added per well. This was incubated at room temperature for one more hour. The wells were washed again three more times and left liquid free after the last wash. The air-dried wells were counted with the Isodata Gamma Counter.
Alternatively, Fabs were evaluated by a modified capture assay, where the IGF-1R-Fc was captured using anti-human IgG immobilized to a plate. Immobilization was carried out by overnight incubation of goat anti-human IgG, Fcγ fragment specific antibody (200 ng/well) in carbonate coating buffer. The wells were washed, blocked and 250 ng of IGF-1R-Fc was added per well.
The ligand blocking ability of the anti-IGF-1R antibody was determined by a solid phase RIA capture method as described in Example 3. […] After 1 hour of incubation at room temperature, the wells were washed and counted for bound radioactivity by a Gamma Counter. An isotype matched negative antibody control, IDEC-151 (human G4), was used. Percent (%) inhibition was calculated as =[1−(Ave.CPM with Ab)/(Ave.CPM with buffer)]×100%.

[2] = system: BxPC3; experiment: Cell cycle arrest of BxPC3 cells (propidium iodide FACS); format: cell-based, human; conditions: 133.3 nM antibody, IGF-1 at 200 ng/ml, 24 hours
Protocol: Method: The ability of fully human IGF-1R antibodies to arrest cell cycle progression was assessed by FACS analysis; monitoring incorporation of propidium iodide in cultured BxPC3 cells. BxPC3 cells (4×10^5 cells/well) were plated into 6 well plates. After 24 hours, cells were changed to serum-free media (SFM) for the following 24 hours. […] After 24 hours, the cells were trypsinized and fixed with ethanol. DNA content was stained with propidium iodide (PI) prior to FACS analysis. An isotype matched antibody, IDEC-151 (human G4), was used as a negative control.

[3] = target: T1, recombinant human IGF-1R-10His (Homo sapiens, UniProt P08069); experiment: SPR, antibodies and Fabs on IGF-1R-His captured via PENTA-His antibody; format: binding; conditions: full-length antibody; 1:1 binding model, approximate; 25° C.
T1 construct: denoted hIGF-1R(1-902)-His10, was purchased from R&D systems (Cat. No. 305-GR-050); purchased R&D Systems 305-GR-050

[4] = target: T1, recombinant human IGF-1R-10His; experiment: as above; format: binding; conditions: Fab fragment; 25° C.
Protocol: Method: The binding activity of M13-C06, M14-C03, and […] to soluble IGF-1R was measured using surface plasmon resonance. Biotinylated PENTA-His Antibody (Qiagen, Inc.) was immobilized onto a Streptavidin coated Sensor Chip. Soluble/Dimeric IGF-1R-His ectodomain (R&D systems, Inc.) was captured on the surface via the PENTA-His antibody. Secondary injections of M13-C06, M14-C03, or M14-G11 Fabs (0.5 nM-100nM) were performed. The surfaces were regenerated with three short injections of acetate, pH 4.0.
M13-C06, M14-C03, and M14-G11 Fab antibodies were prepared by digestion with immobilized papain (Pierce Cat. No. 20341 (Pierce Biotechnology, Inc., Rockford, Ill.)). The papain resin was washed with 20 mM sodium phosphate pH 7.0; 10 mM EDTA; 20 mM Cysteine. Antibodies were mixed with the papain resin in 500 mM EDTA, 100 mM Cysteine pH 7.0 and digested for three hours in a 37° C. water bath followed by mixing on an inverting shaker overnight at room temperature. Completion of each digestion was determined by analytical size exclusion chromatography (SEC). The resin was removed from the digested protein with a sintered glass funnel filter and washed with 20 mM acetate pH 5.0. The flowthrough was collected and diluted 10-fold with 20 mM acetate pH 5.0. Fab fragments were purified by S-SEPHAROSE™ cation exchange chromatography using a linear salt gradient. […]

Molecule | ka [3] [M⁻¹ s⁻¹] | kd [3] [s⁻¹] | further results
M14-G11.G4.P.agly: full-length aglycosylated human IgG4.P version of Fab M14-G11 (antibody) heavy: EVQLLESGGGLVQPGGSLRLSCAASGFTFSNYPMYWVRQAPGKGLEWVSRISSSGGRTVYADSVKGRFTISRDNSKNTLYLQMNSLRAEDTAVYYCARDRWSRSAAEYGLGGYWGQGTLVTVSSASTKGPSVFPLAPCSRSTSESTAALGCLVKDYFPEPVTVSWNSGALTSGVHTFPAVLQSSGLYSLSSVVTVPSSSLGTKTYTCNVDHKPSNTKVDKRV[human IgG4 Fc with S228P T299A (EU numbers) not written out] light: DIQMTQSPDSLAVSLGERATINCKSSQSVLYSSNNKNYLAWYQQKPGQPPKLLIYLASTRESGVPDRFSGSGSGTDFTLTISSLQAEDVAVYYCQQYYSTWTFGQGTKVEIKRTVAAPSVFIFPPSDEQLKSGTASVVCLLNNFYPREAKVQWKVDNALQSGNSQESVTEQDSKDSTYSLSSTLTLSKADYEKHKVYACEVTHQGLSSPVTKSFNRGEC |  |  | blocking of IGF-1 and IGF-2 binding to IGF-1R [1]: block both IGF-1 and IGF-2 binding; cell cycle arrest [2]: arrested the BxPC3 tumor cells at the G0/G1 phase
M13-C06_Ab (antibody) heavy: EVQLLESGGGLVQPGGSLRLSCAASGFTFSIYRMQWVRQAPGKGLEWVSGISPSGGTTWYADSVKGRFTISRDNSKNTLYLQMNSLRAEDTAVYYCARWSGGSGYAFDIWGQGTMVTVSSASTKGPSVFPLAPCSRSTSESTAALGCLVKDYFPEPVTVSWNSGALTSGVHTFPAVLQSSGLYSLSSVVTVPSSSLGTKTYTCNVDHKPSNTKVDKRV[human IgG4 Fc with S228P T299A (EU numbers) not written out] light: DIQMTQSPLSLSASVGDRVTITCQASRDIRNYLNWYQQKPGKAPKLLIYDASSLQTGVPSRFGGSGSGTDFSFTIGSLQPEDIATYYCQQFDSLPHTFGQGTKLEIKRTVAAPSVFIFPPSDEQLKSGTASVVCLLNNFYPREAKVQWKVDNALQSGNSQESVTEQDSKDSTYSLSSTLTLSKADYEKHKVYACEVTHQGLSSPVTKSFNRGEC | 1.8e+06 | 0.00025 | 
M14-G11_Ab (antibody) heavy: EVQLLESGGGLVQPGGSLRLSCAASGFTFSNYPMYWVRQAPGKGLEWVSRISSSGGRTVYADSVKGRFTISRDNSKNTLYLQMNSLRAEDTAVYYCARDRWSRSAAEYGLGGYWGQGTLVTVSSASTKGPSVFPLAPCSRSTSESTAALGCLVKDYFPEPVTVSWNSGALTSGVHTFPAVLQSSGLYSLSSVVTVPSSSLGTKTYTCNVDHKPSNTKVDKRV[human IgG4 Fc with S228P T299A (EU numbers) not written out] light: DIQMTQSPDSLAVSLGERATINCKSSQSVLYSSNNKNYLAWYQQKPGQPPKLLIYLASTRESGVPDRFSGSGSGTDFTLTISSLQAEDVAVYYCQQYYSTWTFGQGTKVEIKRTVAAPSVFIFPPSDEQLKSGTASVVCLLNNFYPREAKVQWKVDNALQSGNSQESVTEQDSKDSTYSLSSTLTLSKADYEKHKVYACEVTHQGLSSPVTKSFNRGEC | 1e+06 | 0.00011 | 
M14-G11_Fab (antibody, V domains shown) VH: EVQLLESGGGLVQPGGSLRLSCAASGFTFSNYPMYWVRQAPGKGLEWVSRISSSGGRTVYADSVKGRFTISRDNSKNTLYLQMNSLRAEDTAVYYCARDRWSRSAAEYGLGGYWGQGTLVTVSS VL: DIQMTQSPDSLAVSLGERATINCKSSQSVLYSSNNKNYLAWYQQKPGQPPKLLIYLASTRESGVPDRFSGSGSGTDFTLTISSLQAEDVAVYYCQQYYSTWTFGQGTKVEIK |  |  | ka [4]: 300000 M⁻¹ s⁻¹; kd [4]: 0.0012 s⁻¹
